Some of the results follow. Further columns of the screen follow, without active or inactive calls.
Target: GTPase KRas (Homo sapiens) (UniProt P01116)
Assay: Fragment capture on engineered cysteines, share of protein labelled (AID 2202238)
Design: protein at 5 µM with 500 µM competing thiol for 1.5 h
Details: KRAS G12D cysteine mutants, disulfide tethering, MALDI-TOF labeling, stronger effect = higher value, fragment at 500 µM
[1] = measured here: G75C mutant labeling
[2] = measured here: H94C mutant labeling
[3] = measured here: I36C mutant labeling
[4] = measured here: L120C mutant labeling
[5] = measured here: M67C mutant labeling
[6] = measured here: M72C mutant labeling
[7] = measured here: N86C mutant labeling
[8] = measured here: P121C mutant labeling
[9] = measured here: S122C mutant labeling
[10] = measured here: S136C mutant labeling
[11] = measured here: G60C mutant labeling
[12] = measured here: N26C mutant labeling

Sequence of UniProt P01116 (P01116 whole entry, looked up, the tested form may be a part): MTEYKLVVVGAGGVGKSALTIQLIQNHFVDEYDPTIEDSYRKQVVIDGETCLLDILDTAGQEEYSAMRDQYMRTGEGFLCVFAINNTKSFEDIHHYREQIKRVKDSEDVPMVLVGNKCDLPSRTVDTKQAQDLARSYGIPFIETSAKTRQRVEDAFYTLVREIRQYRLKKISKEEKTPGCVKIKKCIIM

| Compound | percent labeling [1] | percent labeling [2] | percent labeling [3] | percent labeling [4] | percent labeling [5] | percent labeling [6] | percent labeling [7] | percent labeling [8] | percent labeling [9] | percent labeling [10] | percent labeling [11] | percent labeling [12] |
| --- | --- | --- | --- | --- | --- | --- | --- | --- | --- | --- | --- | --- |
| Cc1noc(CN2CCN(C(=O)CCS)CC2)n1 | 8.3% | 26.7% | 31.8% | 26% | 34.8% | 12.3% | 24.2% | 36.2% | 33.5% | 48.9% |  |  |
| O=C(CCC(=O)N1CCOc2ccccc21)NCCS | 16% | 37.3% | 24.4% | 48.9% | 44.8% | 32.9% | 26.4% | 38.8% | 31.9% | 50% | 50.4% | 36% |
| O=C(CCS)Nc1cccc(-c2ccccc2C(F)(F)F)c1F | 19.1% | 16.7% | 18.8% | 17.8% | 17.6% | 39.1% | 24.7% | 17.1% | 7.3% | 25% |  |  |
| CC(C)(C)OC(=O)N1CCC2(CC1)CCN2C(=O)CCS | 12.3% | 28.2% | 26.6% | 20.7% | 30.8% | 17.2% | 15.5% | 26.8% | 22.6% | 42.8% |  |  |
| Cn1ccc(NC(=O)CNC(=O)CCS)n1 | 9% | 18.1% | 33.9% | 34.7% | 20% | 12.4% | 31.8% | 32.4% | 30.7% | 39.9% |  |  |
| O=C(CCS)Nc1ccc(SCc2ccccc2)c(Br)c1 | 10.7% | 8.5% | 20.9% | 6.8% | 22.7% | 43.8% | 11.3% | 8.8% | 4.2% | 32.5% |  |  |
| O=C(CCS)NCCn1ccc2c(Br)cccc21 | 16.6% | 29.2% | 24.1% | 16.5% | 22.3% | 47.1% | 25.8% | 21.8% | 12.6% | 28.2% |  |  |
| O=C(CCS)Nc1ccc(Oc2ccccc2)c(F)c1 | 17.4% | 14.7% | 19.4% | 18.8% | 29.8% | 55.1% | 20.8% | 18.1% | 12.4% | 28.6% |  |  |
| CC(C)n1nccc1C1NC(=O)CCC1NC(=O)CCS (stereo not given) | 7.4% | 35.7% | 40.3% | 26.9% | 38.1% | 14.3% | 25.3% | 36.4% | 27.9% | 55.4% |  |  |
| O=C(CCS)N1CCC(n2ccc(=O)[nH]c2=O)CC1 | 8.6% | 29% | 38.7% | 31.7% | 38% | 20.5% | 19.3% | 32.9% | 35.2% | 50.3% |  |  |
| O=C(NCCS)c1cc2ccc(Br)cc2c(=O)[nH]1 | 4.1% | 9.8% | 9% | 4.6% | 7.4% | 7.9% | 7.1% | 8% | 3.4% | 6.4% | 9.7% | 16% |
| CC1(N2CCCC2)CCN(C(=O)CCS)CC1 | 11.4% | 28.5% | 43.8% | 19.6% | 39.4% | 16.4% | 24.4% | 31.6% | 21.9% | 49.9% |  |  |
| O=C(NCCS)c1ccc2nc(-c3ccc(F)cc3)[nH]c2c1 | 9.2% | 14.7% | 11.4% | 9.3% | 9.9% | 20.4% | 14.8% | 10.5% | 7.1% | 13% | 19% | 37.6% |
| Cc1noc(-c2ccccc2C(=O)NCCS)n1 | 14.2% | 32.7% | 20.5% | 32.7% | 28.5% | 20% | 30.4% | 33.5% | 29.9% | 41.2% | 36.3% | 35.6% |
| O=C(NCCS)c1ccc2[nH]c(=O)n(CC(F)(F)F)c2c1 | 31.5% | 40.5% | 26.6% | 54.1% | 38.6% | 65.2% | 23.7% | 31.2% | 24.3% | 49.4% | 49.5% | 49.8% |
| O=C(CCS)NC1(c2ncccc2F)CCC1 | 13.7% | 31.9% | 37.2% | 43.5% | 32.6% | 32.1% | 37.3% | 40.1% | 43.5% | 62.9% |  |  |
| Cc1sc2ncn(CCC(=O)NCCS)c(=O)c2c1C | 24.7% | 29.6% | 26.4% | 21.8% | 36.9% | 30.1% | 17.3% | 24.5% | 19.1% | 32.1% | 40.7% | 32.7% |
| COC(=O)c1cc(C2CN(C(=O)CCS)C2)[nH]n1 | 13.7% | 28.5% | 39.1% | 25.1% | 39.7% | 24.9% | 26.8% | 25.9% | 30.9% | 44.9% |  |  |
| Cc1cccc(NC(=O)CCNC(=O)CCS)n1 | 0% | 11.6% | 7.3% | 9.1% | 16.3% | 4.2% | 6.5% | 14.6% | 13.8% | 18.2% |  |  |
| CC(O)(CN1C(=O)C(C)(C)c2ccccc21)C(=O)NCCS (stereo not given) | 19.2% | 38.7% | 27.1% | 34.8% | 39.3% | 37.2% | 30.5% | 32.9% | 32.8% | 57.3% | 42.4% | 40.2% |
| CC1CC1c1ccc(CNC(=O)CCS)o1 (stereo not given) | 19.4% | 33.6% | 28.3% | 22.1% | 23.2% | 34% | 22.9% | 26.8% | 31% | 45.8% |  |  |
| O=C(Cc1cc2ccccc2c(=O)o1)NCCS | 10.6% | 22.2% | 27.2% | 43.2% | 42.3% | 49.7% | 30.7% | 27.8% | 27.9% | 44.8% | 30.2% | 39.8% |
| Cn1cc(CN(Cc2cnn(C)c2)C(=O)CCS)cn1 | 10.5% | 33.3% | 37.5% | 28.4% | 39.3% | 16.9% | 18.6% | 32.2% | 36.6% | 54.1% |  |  |
| O=C(CCS)N1CCC(n2cnc3ccccc32)CC1 | 21.6% | 38.2% | 45.6% | 43.3% | 51% | 42.3% | 28.9% | 40.3% | 34% | 57.5% |  |  |
| CC(C)(O)c1n[nH]c(CNC(=O)CCS)n1 | 15.6% | 20.6% | 31.6% | 30.2% | 28.2% | 15.6% | 21.1% | 33.2% | 37.5% | 39.4% |  |  |
| N#Cc1cc2c([nH]c1=O)CCC(NC(=O)CCS)C2 (stereo not given) | 13.5% | 35% | 47.3% | 28.7% | 47.5% | 22.5% | 15.8% | 37.8% | 32.9% | 57.2% |  |  |
| Cn1ccnc1[C@H]1[C@H](C(=O)NCCS)CCC(=O)N1C1CC1 | 5% | 27.5% | 24.1% | 14.5% | 29% | 6.8% | 16.3% | 23.8% | 19.7% | 36.7% | 29.9% | 25.5% |
| Cc1nc(N2CCN(C(=O)CCS)CC2)n[nH]1 | 15.8% | 22.9% | 34% | 26.7% | 30.2% | 14.5% | 22.5% | 26.8% | 36.9% | 52.1% |  |  |
| Cc1nc(N)c2c(C)c(C(=O)NCCS)sc2n1 | 7.7% | 13.3% | 11.4% | 15.3% | 13.9% | 26.5% | 20.5% | 10.6% | 10.9% | 25.3% | 14.6% | 36.2% |
| Cc1nccc(-c2cccc(NC(=O)CCS)c2)n1 | 15.2% | 29.7% | 39.2% | 30.3% | 26.3% | 43.7% | 24.7% | 21.9% | 18.9% | 43.3% |  |  |
